A lower IC50 marks a more sensitive line; a fit beyond the top or the lowest dose is shown as a bound at that dose. The AUC spans the tested range (256-fold, ending at the top dose) of the same fit; values near 1 show little effect. For part of these data: The top dose, if marked as inferred, was derived from the fitted curves, not read from the paper.
Columns and labels:
Assay in all cases: Viability of human cancer cell lines after 72 h of drug (GDSC screen)
XMD15-27 = compound: C=CC(=O)Nc1ccc(C(=O)c2sc(Nc3ccc(N4CCN(C)CC4)cc3OC)nc2N)cc1 [XMD15-27]; details: top dose 10.24 µM; top dose inferred
Experimental: (§1)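 Human cancer cell lines in 384-well plates, medium with 10% serum, drug for 72 h over a 256-fold dose range (nine 2-fold or five 4-fold steps up to the top dose). Adherent lines were fixed and stained with the nucleic acid dye Syto60, suspension lines read with resazurin; signal relative to control wells, capped at 0 and 100%. One two-parameter sigmoid per drug and line, fitted in a mixed model over all curves with the slope shared within a line.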

SL 0101-1 = compound: CC(=O)O[C@@H]1[C@@H](OC(C)=O)[C@@H](O)[C@H](Oc2c(-c3ccc(O)cc3)oc3cc(O)cc(O)c3c2=O)O[C@H]1C [SL 0101-1]; details: top dose 10 µM; top dose inferred
Experimental: as §1

Temsirolimus = compound: CO[C@H]1C[C@@H]2CC[C@@H](C)[C@@](O)(O2)C(=O)C(=O)N2CCCC[C@H]2C(=O)O[C@H]([C@H](C)C[C@@H]2CC[C@@H](OC(=O)C(C)(CO)CO)[C@H](OC)C2)CC(=O)[C@H](C)/C=C(\C)[C@@H](O)[C@@H](OC)C(=O)[C@H](C)C[C@H](C)/C=C/C=C/C=C/1C [Temsirolimus]; details: top dose 0.2 µM
Experimental: as §1

Cell Line	AUC (XMD15-27)	IC50 (XMD15-27) [µM]	AUC (SL 0101-1)	IC50 (SL 0101-1) [µM]	AUC (Temsirolimus)	IC50 (Temsirolimus) [µM]
GT3TKB (stomach, adherent)	0.989	> 10.2	0.979	> 10	0.871	0.152
C3A (liver, adherent)	0.988	> 10.2	0.975	> 10	0.981	> 0.2
EW-18 (Ewing sarcoma, suspension)	0.971	> 10.2	0.958	> 10	0.794	0.0995
HT-115 (large intestine, adherent)	0.991	> 10.2	0.991	> 10	0.976	> 0.2
SK-MEL-5 (melanoma, adherent)	0.983	> 10.2	0.98	> 10	0.749	0.0776
T-T (oesophagus, adherent)	0.981	> 10.2	0.965	> 10	0.773	0.0777
H9 (lymphoid neoplasm, suspension)	0.894	8.44	0.992	> 10	0.985	> 0.2
WSU-DLCL2 (B-cell lymphoma, suspension)	0.96	> 10.2	0.991	> 10	0.453	0.0095
LS-513 (large intestine, adherent)	0.981	> 10.2	0.987	> 10	0.952	> 0.2
Saos-2 (osteosarcoma, adherent)	0.981	> 10.2	0.981	> 10	0.932	> 0.2
EW-1 (Ewing sarcoma, semi-adherent)	0.946	> 10.2	0.983	> 10	0.82	0.103
A375 (melanoma, adherent)	0.991	> 10.2	0.982	> 10	0.266	0.00312
SNU-C2B (large intestine, adherent)	0.976	> 10.2	0.934	> 10	0.84	> 0.2
NH-12 (neuroblastoma, adherent)	0.984	> 10.2	0.966	> 10	0.848	0.177
NCI-SNU-5 (stomach, suspension)	0.989	> 10.2	0.989	> 10	0.667	0.0366
NEC8 (testis, adherent)	0.991	> 10.2	0.981	> 10	0.972	> 0.2
Hs633T (fibrosarcoma, adherent)	0.99	> 10.2	0.992	> 10	0.254	0.00291
BICR10 (head and neck, adherent)	0.975	> 10.2	0.983	> 10	0.603	0.0251
CHSA0108 (chondrosarcoma, adherent)	0.975	> 10.2	0.983	> 10	0.801	0.115
